From publication PMC5906591

Molecular target: His-HigB2Ab toxin (N-terminal His-tag fusion, from pET-His-HigBA) (Acinetobacter baumannii)
Assay: SEC

## HigA2Ab antitoxin, untagged (co-expressed from pET-His-HigBA)
  stoichiometry N (toxin:antitoxin): 1.5
